# In PubChem BioAssay AID2101 (National Center for Advancing Translational Sciences (NCATS), 2009):
# Among all 330,000 compounds or so, about 300 (0.091%) were called active. This list was built around the results that the source calls inconclusive (neither active nor inactive); the mix of calls is not that of the screen. Calls follow the shape of the dose curve; as a rule, active = well fitted inhibition curve with a large enough effect; inconclusive = small, poorly fitted or top-dose-only effect, or effect the other way, or another doubt; inactive = no such curve, though single readings can be large or run the other way. No potency is given beside an inconclusive call; the fits are too rough.
# Target: Lysosomal acid glucosylceramidase (Homo sapiens) (UniProt P04062)
# Assay: qHTS Assay for Inhibitors and Activators of N370S glucocerebrosidase as a Potential Chaperone Treatment of Gaucher Disease;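 as to activity change, negative = inhibition: 0% = full enzyme activity and -100% = no enzyme basal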
# Conditions: N370S GC spleen homogenate, 4MU-glucoside fluorescence; activity change, negative = inhibition: at 59.4 µM (top of the series) unless noted
# Potency is read from the fitted curve at half-maximal effect.
SMILES,Potency,"activity change, negative = inhibition"
CC(C)[C@H](NC(=O)c1ccccc1)C(=O)OCC(=O)NCCC1=CCCCC1,"inconclusive [activator, partial curve, poor fit]",–
CCOC(=O)C1=C(COC(=O)COc2ccc(Br)cc2)NC(=O)NC1C (stereo not given),"inconclusive [inhibitor, full curve, poor fit]",–
O=C(C1=NN[C@@H]2C(=O)N(c3ccccc3C(F)(F)F)C(=O)[C@H]12)C(c1ccccc1)c1ccccc1,"inconclusive [activator, partial curve]",–
Cc1ccc(CSCCNC(=O)CCSc2ccccc2)cc1,"inconclusive [activator, single point]",–
CCOc1ccc2nc(C)cc(C(=O)O)c2c1,–,inactive: 9.37%
COc1ccccc1Nc1nc(NCc2ccco2)c2ccccc2n1,"inconclusive [inhibitor, single point]",–
COCCNCCCOc1ccc(C(C)(C)c2ccccc2)cc1,"inconclusive [inhibitor, single point]",–
COc1cccc(NC(=O)c2nn(C34CC5CC(CC(C5)C3)C4)cc2[N+](=O)[O-])c1,"inconclusive [activator, partial curve]",–
COc1ccc(C2/C(=C(/O)c3ccc(F)cc3)C(=O)C(=O)N2c2ccccn2)cc1OC (stereo not given),–,inactive: -2.07%
Oc1ccccc1C1=NN(c2ccccc2)C(c2ccccc2)C1 (stereo not given),"inconclusive [activator, partial curve]",–
COc1ccccc1OCC(=O)/C=C1/N(C)c2ccccc2C1(C)C,"inconclusive [activator, partial curve]",–
Cc1nc2ccc(NC(=O)Cc3cccc(F)c3)cc2s1,–,inactive: -1.04%
Cc1ccc(S(=O)(=O)N(CC(=O)N/N=C/c2ccco2)Cc2ccccc2)cc1,"inconclusive [activator, single point]",–
Cc1ccc(C(=O)Nc2ccc3c(c2)ncn3C)cc1,–,inactive: -1.51%
[N-]=[N+]=NC(c1ccccc1)c1nc2ccccc2[nH]c1=O (stereo not given),"inconclusive [activator, partial curve]",–
C=CCN1c2ccccc2[C@]23C[C@@H](C(=O)OC)N(S(=O)(=O)CCCC)C2=NC(C(=O)OC)=C(C(=O)OC)[C@H]13,–,inactive: -10.4% [at 12.8 µM]
N#CCSc1nc2sc3c(c2c(=O)n1C1CCCCC1)CCCC3,"inconclusive [activator, partial curve, poor fit]",–
CCCCCCCCOc1ccc(C2OC34CCCCC3C(C#N)(C#N)C2(C#N)C(=N)O4)cc1 (stereo not given),"inconclusive [activator, single point]",–
COc1cccc(-c2cc(C(=O)Nc3nc4ccccc4s3)c3ccccc3n2)c1,"inconclusive [inhibitor, partial curve]",–
CCOC(=O)c1c(NC(=O)Cn2nnc3ccccc32)sc2c1CCC(C)C2 (stereo not given),"inconclusive [activator, partial curve]",–
CCOc1ccc(N(CC(=O)Nc2ccc(CC)cc2)S(=O)(=O)c2c(C)[nH]c(=O)[nH]c2=O)cc1,active: 3.55 µM,–
COc1ccc2sc(N(CCCN(C)C)C(=O)c3ccc(C(=O)c4ccccc4)cc3)nc2c1,"inconclusive [inhibitor, single point]",–
Cc1cc(C)cc(NC(=O)c2sc3nc(C)cc(C)c3c2N)c1,"inconclusive [activator, single point]",–
COc1ccc(CC(=O)n2[nH]c(=O)ccc2=O)cc1OC,–,inactive: -0.539%

SMILES,Potency,"activity change, negative = inhibition"
Cc1ccccc1Nc1nc(N)nc(COC(=O)c2ccccc2)n1,–,inactive: 3.77%
COC(=O)c1ccc(NC(=O)CCS(=O)(=O)c2ccc3c(c2)NC(=O)C(C)S3)cc1 (stereo not given),"inconclusive [inhibitor, partial curve]",–
CCOC(=O)c1c(CN2CCN(C)CC2)n(-c2ccccc2)c2cc(Br)c(O)cc12,"inconclusive [inhibitor, single point]",–
COc1ccccc1N1C(=O)C(Cl)=C(Nc2ccccc2O)C1=O,–,inactive: -18%
Cc1ccc(C(=O)Nc2nc(-c3ccc(F)cc3)cs2)o1,"inconclusive [activator, single point]",–
Cc1c(C(=O)N2CCN(c3ccccn3)CC2)oc2ccccc12,–,inconclusive: 37% [activator]
COc1ccc(CNc2nc(-c3ccccc3OC)nc3ccccc23)c(OC)c1,"inconclusive [inhibitor, partial curve]",–
CCOC(=O)COc1c(OC)cc(Cl)cc1C1Nc2ccccc2C(=O)N1c1ccccc1 (stereo not given),"inconclusive [activator, partial curve]",–
Cc1ccccc1-c1noc(-c2ccccc2F)n1,"inconclusive [activator, full curve, poor fit]",–
Cc1ccc(-c2nc3cc(C)ccc3o2)cc1,–,inactive: 1.04%
Cc1cccc(-n2c3nc(=O)[nH]c(=O)c-3cc3c(C)nn(-c4ccccc4)c32)c1C,"inconclusive [activator, partial curve]",–
C1CCC2OC2C1 (stereo not given),–,inactive: 4.47%
Cc1cc2[nH]c(=O)c(=O)[nH]c2cc1S(=O)(=O)Nc1cccc(C)c1C,"inconclusive [inhibitor, single point]",–
CC(SC1=Nc2ccccc2C2CC=NN12)C(=O)NC1(C#N)CCCCC1 (stereo not given),"inconclusive [activator, single point]",–
COc1ccc2cc(C(=O)C3CCCN(Cc4cnc(N5CCOCC5)s4)C3)ccc2c1 (stereo not given),"inconclusive [inhibitor, single point]",–
NNc1nc(Nc2ccc([N+](=O)[O-])cc2)nc(N2CCCCCC2)n1,–,inactive: -22.7%
COc1ccc(O)c(-c2c(-c3ccc(Cl)cc3)n[nH]c2C)c1,–,inactive: -16.5%
CCc1nc(NCc2ccccc2)c(C#N)c2c1CCCC2,–,inactive: 21.4%
COc1ccc(OC)c(NC(=O)C2CCN(C(=O)c3cccs3)CC2)c1,–,inconclusive: 27.2% [activator]
O=C(CSc1nc(Cc2ccccc2)nc2ccccc12)Nc1nc2c(s1)CCCC2,"inconclusive [activator, partial curve]",–
N#CCCn1c(=O)cnc2cnc(N3CCOCC3)nc21,"inconclusive [inhibitor, partial curve]",–
Cc1nc2cc(NC(=O)NCc3ccco3)ccc2n1C,–,inactive: 2.77%
C=C(C)/C=N/NC(=S)Nc1ccc(S(=O)(=O)N2CCOCC2)cc1,–,inactive: -6.95%
Cc1ccc2nc(NCCNC(=O)c3ccccc3)c(C#N)cc2c1,"inconclusive [activator, partial curve]",–

SMILES,Potency,"activity change, negative = inhibition"
COc1ccccc1/C=C/c1nc(S(=O)(=O)c2ccccc2)c(NCCN(C)C)o1,"inconclusive [activator, partial curve]",–
CC(C)CCN1CC(O)=C(c2nc3ccccc3[nH]2)C1=N,"inconclusive [activator, partial curve]",–
O=C(O)c1cccc(N2C(=O)c3cccc4c(Cl)ccc(c34)C2=O)c1,"inconclusive [activator, single point]",–
CCOc1ccc(-n2nc3ccc(NC(=O)CC)cc3n2)cc1,"inconclusive [activator, full curve]",–
O=c1[nH]nc(CNc2cccc(C(F)(F)F)c2)c2ccccc12,–,inactive: -4.89%
O=C(Nc1ccncc1)c1ccc(NS(=O)(=O)c2cccc(F)c2)cc1,"inconclusive [inhibitor, partial curve, poor fit]",–
CCc1ccccc1NC(=O)CSc1nnc([C@@H](N)Cc2ccccc2)o1,"inconclusive [inhibitor, single point]",–
CCCCN(C)C(=O)C1CCC(CNS(=O)(=O)c2ccc3c(c2)CC(C)N3C(=O)C2CC2)CC1 (stereo not given),"inconclusive [inhibitor, partial curve]",–
COCCn1c(=O)c(CCc2ccccc2)nc2cnc(OCc3ccccc3)nc21,"inconclusive [activator, partial curve]",–
CCCN(CCC)CCNC(=O)CS(=O)Cc1nc(-c2ccc(C)cc2)oc1C (stereo not given),"inconclusive [inhibitor, partial curve, poor fit]",–
CCOc1ccc(NS(=O)(=O)c2ccc(C(=O)NCCCN3CCOCC3)cc2)cc1,–,inactive: -3.98%
Cc1cccc(Nc2cc(C)c3c(O)cccc3n2)c1C,–,inactive: -16.2%
Cc1cc2nc(-c3ccc[nH]c3=O)[nH]c2cc1C,"inconclusive [activator, partial curve]",–
CCS(=O)(=O)c1ccc(O)c(NC(=O)CCCC(=O)O)c1,–,inactive: -9.33%
CCc1ccc(N(CC(=O)NC2CC2)S(=O)(=O)c2ccc(C)cc2)cc1,"inconclusive [inhibitor, partial curve]",–
CCCCNC(=O)CS(=O)Cc1nc(-c2cccc(Cl)c2)oc1C (stereo not given),–,inactive: -27.5%
CCC(C)(C)n1nnnc1C(c1cc2ccc(OC)cc2[nH]c1=O)N1CCc2ccccc21 (stereo not given),"inconclusive [activator, partial curve]",–
COc1ccc(CC(=O)N2CCc3ccccc32)cc1,–,inactive: 6.12%
CC(=O)Nc1ccc(S(=O)(=O)NNC(=O)COc2ccc(C(C)(C)C)cc2)cc1,"inconclusive [inhibitor, single point]",–
CCOC(=O)Cc1csc(NS(=O)(=O)c2ccc(F)cc2)n1,"inconclusive [inhibitor, single point]",–
CCOc1cc2[nH]c(=O)n(CCCC(=O)NCc3ccco3)c(=O)c2cc1OCC,–,inactive: -17.1%
O=C(NC1CCN(Cc2ccc(Cl)cc2Cl)CC1)c1ccccc1,"inconclusive [inhibitor, single point]",–
